Source: patent US20250304706A1 (Astellas, published 2025)

B1: BTE-0004 (bispecific antibody)
chain 1: QVQLVESGGGVVQPGGSLRLSCAASGFTFSSYGMHWVRQAPGKGLEWVAVIWYDGRNKYYADSVKGRFTISRDNSKNTLYLQMNSLRAEDTAVYYCTRDHSGSGSYYIDYWGQGTLVTVSSASTKGPSVFPLAPSSKSTSGGTAALGCLVKDYFPEPVTVSWNSGALTSGVHTFPAVLQSSGLYSLSSVVTVPSSSLGTQTYICNVNHKPSNTKVDKKVEPKSCDKTHTCPPCPAPEAAGGPSVFLFPPKPKDTLMISRTPEVTCVVVDVSHEDPEVKFNWYVDGVEVHNAKTKPREEQYGSTYRVVSVLTVLHQDWLNGKEYKCKVSNKALPAPIEKTISKAKGQPREPQVYTLPPSRDELTKNQVSLSCAVKGFYPSDIAVEWESNGQPENNYKTTPPVLDSDGSFFLVSKLTVDKSRWQQGNVFSCSVMHEALHNHYTQKSLSLSPGK
chain 2: EIAMTQSPATLSVSPGERATLSCRASQSVSSNLAWYQQKPGQAPRLLIYGASTRATGLPARFSGSGSGTEFTLTISSLQSEDFAVYYCQQYNNFWTFGQGTKVEIKRTVAAPSVFIFPPSDEQLKSGTASVVCLLNNFYPREAKVQWKVDNALQSGNSQESVTEQDSKDSTYSLSSTLTLSKADYEKHKVYACEVTHQGLSSPVTKSFNRGEC
chain 3: EVQLVESGGGLIQPGGSLRLSCAASGFTFNSYAMNWVRQAPGKGLEWVARIRSKYNNYATYYADSVKDRFTISRDDSKSTLYLQMNNLRAEDTAVYYCVRHGNFGNSYVSWFAYWGQGTLVTVSSGKPGSGKPGSGKPGSGKPGSQAVVTQEPSLTVSPGGTVTLTCRSSTGAVTTSNYANWVQQKPGQAPRGLIGGTNKRAPGTPARFSGSLLGDKAALTLSGAQPEDEAEYYCALWYSNLWVFGGGTKVTVL[human IgG1 Fc with C220S L234A L235A N297G T366W (EU numbers) cut from this listing]
B2: BTE-0042 (bispecific antibody)
chain 1: QVQLVESGGGVVQPGGSLRLSCAASGFTFSSYGMHWVRQAPGKGLEWVAVIWYDGRNKYYADSVKGRFTISRDNSKNTLYLQMNSLRAEDTAVYYCTRDHSGSGSYYIDYWGQGTLVTVSSASTKGPSVFPLAPSSKSTSGGTAALGCLVKDYFPEPVTVSWNSGALTSGVHTFPAVLQSSGLYSLSSVVTVPSSSLGTQTYICNVNHKPSNTKVDKKVEPKSCDKTHTCPPCPAPEAAGGPSVFLFPPKPKDTLMISRTPEVTCVVVDVSHEDPEVKFNWYVDGVEVHNAKTKPREEQYGSTYRVVSVLTVLHQDWLNGKEYKCKVSNKALPAPIEKTISKAKGQPREPQVYTLPPSRDELTKNQVSLSCAVKGFYPSDIAVEWESNGQPENNYKTTPPVLDSDGSFFLVSKLTVDKSRWQQGNVFSCSVMHEALHNHYTQKSLSLSPGK
chain 2: EIAMTQSPATLSVSPGERATLSCRASQSVSSNLAWYQQKPGQAPRLLIYGASTRATGLPARFSGSGSGTEFTLTISSLQSEDFAVYYCQQYNNFWTFGQGTKVEIKRTVAAPSVFIFPPSDEQLKSGTASVVCLLNNFYPREAKVQWKVDNALQSGNSQESVTEQDSKDSTYSLSSTLTLSKADYEKHKVYACEVTHQGLSSPVTKSFNRGEC
chain 3: EVQLVESGGGLIQPGGSLRLSCAASGFTFNTYAMNWVRQAPGKGLEWVARIRSKYNNYATYYADSVKDRFTISRDDSKSTLYLQMNNLRAEDTAVYYCVRHGNFGNNYVSWFAYWGQGTLVTVSSGKPGSGKPGSGKPGSGKPGSQAVVTQEPSLTVSPGGTVTLTCRSSTGAVTTSNYANWVQQKPGQAPRGLIGGTNKRAPGTPARFSGSLLGDKAALTLSGAQPEDEAEYYCALWYSNLWVFGGGTKVTVL[human IgG1 Fc with C220S L234A L235A N297G T366W (EU numbers) cut from this listing]
B3: BTE-0043 (bispecific antibody)
chain 1: QVQLVESGGGVVQPGGSLRLSCAASGFTFSSYGMHWVRQAPGKGLEWVAVIWYDGRNKYYADSVKGRFTISRDNSKNTLYLQMNSLRAEDTAVYYCTRDHSGSGSYYIDYWGQGTLVTVSSASTKGPSVFPLAPSSKSTSGGTAALGCLVKDYFPEPVTVSWNSGALTSGVHTFPAVLQSSGLYSLSSVVTVPSSSLGTQTYICNVNHKPSNTKVDKKVEPKSCDKTHTCPPCPAPEAAGGPSVFLFPPKPKDTLMISRTPEVTCVVVDVSHEDPEVKFNWYVDGVEVHNAKTKPREEQYGSTYRVVSVLTVLHQDWLNGKEYKCKVSNKALPAPIEKTISKAKGQPREPQVYTLPPSRDELTKNQVSLSCAVKGFYPSDIAVEWESNGQPENNYKTTPPVLDSDGSFFLVSKLTVDKSRWQQGNVFSCSVMHEALHNHYTQKSLSLSPGK
chain 2: EIAMTQSPATLSVSPGERATLSCRASQSVSSNLAWYQQKPGQAPRLLIYGASTRATGLPARFSGSGSGTEFTLTISSLQSEDFAVYYCQQYNNFWTFGQGTKVEIKRTVAAPSVFIFPPSDEQLKSGTASVVCLLNNFYPREAKVQWKVDNALQSGNSQESVTEQDSKDSTYSLSSTLTLSKADYEKHKVYACEVTHQGLSSPVTKSFNRGEC
chain 3: EVQLVESGGGLIQPGGSLRLSCAASGFTFNTYAMNWVRQAPGKGLEWVARIRSKYNNYATYYADSVKDRFTISRDDSKSTLYLQMNNLRAEDTAVYYCVRHGNFGNQYVSWFAYWGQGTLVTVSSGKPGSGKPGSGKPGSGKPGSQAVVTQEPSLTVSPGGTVTLTCRSSTGAVTTSNYANWVQQKPGQAPRGLIGGTNKRAPGTPARFSGSLLGDKAALTLSGAQPEDEAEYYCALWYSNLWVFGGGTKVTVL[human IgG1 Fc with C220S L234A L235A N297G T366W (EU numbers) cut from this listing]
B4: BTE-0044 (bispecific antibody)
chain 1: QVQLVESGGGVVQPGGSLRLSCAASGFTFSSYGMHWVRQAPGKGLEWVAVIWYDGRNKYYADSVKGRFTISRDNSKNTLYLQMNSLRAEDTAVYYCTRDHSGSGSYYIDYWGQGTLVTVSSASTKGPSVFPLAPSSKSTSGGTAALGCLVKDYFPEPVTVSWNSGALTSGVHTFPAVLQSSGLYSLSSVVTVPSSSLGTQTYICNVNHKPSNTKVDKKVEPKSCDKTHTCPPCPAPEAAGGPSVFLFPPKPKDTLMISRTPEVTCVVVDVSHEDPEVKFNWYVDGVEVHNAKTKPREEQYGSTYRVVSVLTVLHQDWLNGKEYKCKVSNKALPAPIEKTISKAKGQPREPQVYTLPPSRDELTKNQVSLSCAVKGFYPSDIAVEWESNGQPENNYKTTPPVLDSDGSFFLVSKLTVDKSRWQQGNVFSCSVMHEALHNHYTQKSLSLSPGK
chain 2: EIAMTQSPATLSVSPGERATLSCRASQSVSSNLAWYQQKPGQAPRLLIYGASTRATGLPARFSGSGSGTEFTLTISSLQSEDFAVYYCQQYNNFWTFGQGTKVEIKRTVAAPSVFIFPPSDEQLKSGTASVVCLLNNFYPREAKVQWKVDNALQSGNSQESVTEQDSKDSTYSLSSTLTLSKADYEKHKVYACEVTHQGLSSPVTKSFNRGEC
chain 3: EVQLVESGGGLIQPGGSLRLSCAASGFTFNTYAMNWVRQAPGKGLEWVARIRSKYNNYATYYADSVKDRFTISRDDSKSTLYLQMNNLRAEDTAVYYCVRHGNFGNRYVSWFAYWGQGTLVTVSSGKPGSGKPGSGKPGSGKPGSQAVVTQEPSLTVSPGGTVTLTCRSSTGAVTTSNYANWVQQKPGQAPRGLIGGTNKRAPGTPARFSGSLLGDKAALTLSGAQPEDEAEYYCALWYSNLWVFGGGTKVTVL[human IgG1 Fc with C220S L234A L235A N297G T366W (EU numbers) cut from this listing]
B5: BTE-0040 (bispecific antibody)
chain 1: QVQLVESGGGVVQPGGSLRLSCAASGFTFSSYGMHWVRQAPGKGLEWVAVIWYDGRNKYYADSVKGRFTISRDNSKNTLYLQMNSLRAEDTAVYYCTRDHSGSGSYYIDYWGQGTLVTVSSASTKGPSVFPLAPSSKSTSGGTAALGCLVKDYFPEPVTVSWNSGALTSGVHTFPAVLQSSGLYSLSSVVTVPSSSLGTQTYICNVNHKPSNTKVDKKVEPKSCDKTHTCPPCPAPEAAGGPSVFLFPPKPKDTLMISRTPEVTCVVVDVSHEDPEVKFNWYVDGVEVHNAKTKPREEQYGSTYRVVSVLTVLHQDWLNGKEYKCKVSNKALPAPIEKTISKAKGQPREPQVYTLPPSRDELTKNQVSLSCAVKGFYPSDIAVEWESNGQPENNYKTTPPVLDSDGSFFLVSKLTVDKSRWQQGNVFSCSVMHEALHNHYTQKSLSLSPGK
chain 2: EIAMTQSPATLSVSPGERATLSCRASQSVSSNLAWYQQKPGQAPRLLIYGASTRATGLPARFSGSGSGTEFTLTISSLQSEDFAVYYCQQYNNFWTFGQGTKVEIKRTVAAPSVFIFPPSDEQLKSGTASVVCLLNNFYPREAKVQWKVDNALQSGNSQESVTEQDSKDSTYSLSSTLTLSKADYEKHKVYACEVTHQGLSSPVTKSFNRGEC
chain 3: EVQLVESGGGLIQPGGSLRLSCAASGFTFNTYAMNWVRQAPGKGLEWVARIRSKYNNYATYYADSVKDRFTISRDDSKSTLYLQMNNLRAEDTAVYYCVRHGNFGNLYVSWFAYWGQGTLVTVSSGKPGSGKPGSGKPGSGKPGSQAVVTQEPSLTVSPGGTVTLTCRSSTGAVTTSNYANWVQQKPGQAPRGLIGGTNKRAPGTPARFSGSLLGDKAALTLSGAQPEDEAEYYCALWYSNLWVFGGGTKVTVL[human IgG1 Fc with C220S L234A L235A N297G T366W (EU numbers) cut from this listing]
B6: BTE-0041 (bispecific antibody)
chain 1: QVQLVESGGGVVQPGGSLRLSCAASGFTFSSYGMHWVRQAPGKGLEWVAVIWYDGRNKYYADSVKGRFTISRDNSKNTLYLQMNSLRAEDTAVYYCTRDHSGSGSYYIDYWGQGTLVTVSSASTKGPSVFPLAPSSKSTSGGTAALGCLVKDYFPEPVTVSWNSGALTSGVHTFPAVLQSSGLYSLSSVVTVPSSSLGTQTYICNVNHKPSNTKVDKKVEPKSCDKTHTCPPCPAPEAAGGPSVFLFPPKPKDTLMISRTPEVTCVVVDVSHEDPEVKFNWYVDGVEVHNAKTKPREEQYGSTYRVVSVLTVLHQDWLNGKEYKCKVSNKALPAPIEKTISKAKGQPREPQVYTLPPSRDELTKNQVSLSCAVKGFYPSDIAVEWESNGQPENNYKTTPPVLDSDGSFFLVSKLTVDKSRWQQGNVFSCSVMHEALHNHYTQKSLSLSPGK
chain 2: EIAMTQSPATLSVSPGERATLSCRASQSVSSNLAWYQQKPGQAPRLLIYGASTRATGLPARFSGSGSGTEFTLTISSLQSEDFAVYYCQQYNNFWTFGQGTKVEIKRTVAAPSVFIFPPSDEQLKSGTASVVCLLNNFYPREAKVQWKVDNALQSGNSQESVTEQDSKDSTYSLSSTLTLSKADYEKHKVYACEVTHQGLSSPVTKSFNRGEC
chain 3: EVQLVESGGGLIQPGGSLRLSCAASGFTFNTYAMNWVRQAPGKGLEWVARIRSKYNNYATYYADSVKDRFTISRDDSKSTLYLQMNNLRAEDTAVYYCVRHGNFGNMYVSWFAYWGQGTLVTVSSGKPGSGKPGSGKPGSGKPGSQAVVTQEPSLTVSPGGTVTLTCRSSTGAVTTSNYANWVQQKPGQAPRGLIGGTNKRAPGTPARFSGSLLGDKAALTLSGAQPEDEAEYYCALWYSNLWVFGGGTKVTVL[human IgG1 Fc with C220S L234A L235A N297G T366W (EU numbers) cut from this listing]

target: T1, CD3εδ complex protein (human; alpaca, UniProt P07766 23-126; P04234 22-105); assay: ELISA, CD3 complex immobilized
UniProt P07766, sequence (P07766 23-126 limits assumed, stated change not applied, form in doubt, chain 1 of 2): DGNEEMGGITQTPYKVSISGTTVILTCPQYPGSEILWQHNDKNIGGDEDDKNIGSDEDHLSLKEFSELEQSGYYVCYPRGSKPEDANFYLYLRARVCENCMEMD
UniProt P07766, sequence (P04234 22-105 limits assumed, stated change not applied, form in doubt, chain 2 of 2, further chain): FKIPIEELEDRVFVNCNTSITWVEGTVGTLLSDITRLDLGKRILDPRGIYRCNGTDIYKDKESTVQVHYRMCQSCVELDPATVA
T1 construct: they are not part of the secreted protein; also called human CD3; CD386 complex protein

Point of comparison: B2, EC50 0.0575 µg/mL. Against it:
- B1 — 11-fold lower, 0.00537 µg/mL
- B3 — 2.9-fold lower, 0.0198 µg/mL
- B4 — 6.8-fold lower, 0.00844 µg/mL
- B5 — within 1.5-fold, 0.0389 µg/mL
- B6 — within 1.5-fold, 0.0407 µg/mL
